Test [1] in a line: A CellTox Green Cytotoxicity Assay to monitor cytotoxicity in HEK293 cells - 24 hour (AID 1224875). Further: nearly all actives have a fitted effect of over 45% in size. In short, it runs like this:
(§1)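 Fluorescence from a DNA-binding dye excluded by viable cells was measured repeatedly in the same HEK293 wells (600 cells/well) during continuous compound exposure at 37 C. Each assay gives one read point: 0, 8, 16, 24, 32 or 40 h.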

Test [2] is described as follows: A CellTox Green Cytotoxicity Assay to monitor cytotoxicity in HEK293 cells - 16 hour (AID 1224888). Further: nearly all actives have a fitted effect of over 35% in size. In short, it runs like this: as §1
Test [3] can be described thus: qHTS assay to identify small molecule antagonists of the peroxisome proliferator-activated receptor gamma (PPARg) signaling pathway - cell viability counter screen (AID 743194). Further: nearly all actives have a fitted effect of over 55% in size. In short, it runs like this: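 PPARg-UAS-bla HEK293H cells were plated, rested 5 h at 37 C, then treated with compounds plus rosiglitazone (50 nM final) for 17 h at 37 C; viability was then read by CellTiter-Glo luminescence after 30 min at room temperature.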
On the technique in general: qHTS replaces the single test concentration by a dilution series.

The nature of test [4]: qHTS assay to identify small molecule agonists of the constitutive androstane receptor (CAR) signaling pathway - cell viability counter screen (AID 1224836). Further: nearly all actives have a fitted effect of over 45% in size. In short, it runs like this:
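Multiplexed viability check: HepG2-CYP2B6-hCAR cells, 15-point compound dosing, 0.75 uM PK11195 final, 23 h at 37 C, CellTiter-Fluor fluorescence.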

A short description of test [5]: qHTS assay to identify small molecule antagonists of the constitutive androstane receptor (CAR) signaling pathway - cell viability counter screen (AID 1224837). Further: nearly all actives have a fitted effect of over 45% in size. In short, it runs like this: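 Cytotoxicity counter-screen: CellTiter-Fluor fluorescence after 23 h compound exposure (15-point qHTS) in double-stable HepG2-CYP2B6-hCAR cells, with 50 nM CITCO added.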
Test [6] in a line: qHTS assay to identify small molecule antagonists of the glucocorticoid receptor (GR) signaling pathway - cell viability counter screen (AID 720693). Further: nearly all actives have a fitted effect of over 55% in size.
Test [7] can be described thus: qHTS RealTime-Glo MT Cell Viability Assay in HEK293 cells - 0 hour (AID 1224880). Further: nearly all actives have a fitted effect of over 45% in size. In short, it runs like this:
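Luminescence, which tracks viable cell number through reduction of the prosubstrate to a NanoLuc substrate, was read over continuous 37 C culture. Cells (600/well) were premixed with reagent and rested 5 h before 23 nL of compound in DMSO was pinned.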

Test [8] is described as follows: qHTS assay to identify small molecule antagonists of the progesterone receptor (PR) signaling pathway - cell viability counter screen (AID 1346798). Further: nearly all actives have a fitted effect of over 50% in size. In short, it runs like this: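 ATP content as viability readout: CellTiter-Glo luminescence, 30 min room temperature, in PR-UAS-bla HEK293T cells after 16 hr compound/R5020 treatment at 37C and 5% CO2.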
A short description of test [9]: qHTS assay to identify small molecule antagonists of the thyroid receptor (TR) signaling pathway (AID 743065). Further: nearly all actives have a fitted effect of over 55% in size. In short, it runs like this:
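GH3.TRE-Luc rat pituitary cells carrying two TR response elements driving luciferase were plated for 4 h, given compound plus 1 nM T3 (final), and incubated 23.5 h at 37 C. ONE-Glo luminescence measured reporter inhibition; CellTiter-Fluor fluorescence tracked cytotoxicity.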

Results filed as inconclusive are left out. The call rests on the fitted dose curve; in most records, active means well fitted curve in the direction sought with a large enough effect in the repeat runs; inconclusive means weak or mixed curves; inactive means no such curve, though single readings can be large; an effect the other way counts as inactive or inconclusive. More than one record can exist for a structure, and the calls need not agree. The source holds more than one record for some entries. They are shown here; other results are not. The source may hold further records. Values that stand side by side repeat one measurement in other runs, samples, wells, individuals or studies. Brackets tell where a record comes from. Letters count within one entry.
Potency means the concentration at half of the fitted maximal effect.

`C1CN(SSN2CCOCC2)CCO1`: the Potency entry in [1] was “active: 48.5 µM [sample A] and inactive [sample B]”.
`O=C(CCCN1CCC(O)(c2ccc(Cl)cc2)CC1)c1ccc(F)cc1`: the Potency result is “active: 49 µM [sample A] and inactive [sample B]” in test [1]; “active: 49 µM [sample A] and inactive [sample B]” in [2].
As for `COc1cc([C@H]2Oc3cc([C@H]4Oc5cc(O)cc(O)c5C(=O)[C@@H]4O)ccc3O[C@@H]2CO)ccc1O`, the Potency entry in test [1] is “inactive [sample A] and active: 16.9 µM [sample B]”; in test [2] it was “inactive [sample A] and active: 16.9 µM [sample B]”.
`O=Cc1ccccc1C=O`: the Potency result in test [3] was “active: 27.5 µM [sample A] and inactive [sample B]”; in test [4], “active: 61.1 µM [sample A] and inactive [sample B]”; in test [5], “active: 61.1 µM [sample A] and inactive [sample B]”.
In the case of `O=C1CCc2ccccc2O1`, the Potency entry in [1] is “inactive [sample A] and active: 21.9 µM [sample B]”.
With `Cc1ccc(C(C)(C)C)c(O)c1`, in test [2], the Potency result is “active: 23.8 µM [sample A] and inactive [sample B]”.
Regarding `CC/C(=C(/CC)c1ccc(O)cc1)c1ccc(O)cc1`, the Potency result in [6] is “inactive [sample A] and active: 48.6 µM [sample B] and active: 54.9 µM [sample C]”.
Take `Nc1ccc(N)c(Cl)c1`: the Potency result is “inactive [sample A] and active: 38.9 µM [sample B]” in test [1]; “inactive [sample A] and active: 38.9 µM [sample B]” in test [2].
Consider `CC1(C)O[C@@H]2C[C@H]3[C@@H]4C[C@H](F)C5=CC(=O)C=C[C@]5(C)[C@@]4(F)[C@@H](O)C[C@]3(C)[C@]2(C(=O)CO)O1`, for which the Potency entry in test [7] is “active: 19.5 µM [sample A] and inactive [sample B]”.
In the case of `O=C(O)c1cc(=O)[nH]c(=O)[nH]1`, the Potency result in [8] is “inactive [sample A] and active: 26.6 µM [sample B]”.
Consider `CC(C)(C)c1cccc(C(C)(C)C)c1O`, for which the Potency entry in [1] is “active: 53.7 µM [sample A] and inactive [sample B]”.
For `CC1=CC(C)(C)Nc2ccccc21`, the Potency entry in [9] was “inactive [sample A] and active: 29.8 µM [sample B]”.
For the compound `Cc1ccc([N+](=O)[O-])c(C)c1`, the Potency entry is “active: 13.7 µM [sample A] and inactive [sample B]” in [4]; “active: 12.2 µM [sample A] and inactive [sample B]” in test [5]; “active: 24.3 µM [sample A] and inactive [sample B]” in test [8].

The values are drawn from PubChem BioAssay (Tox21).
